{
  "source": "the RNAGym collection of RNA variant scans (doi:10.1073/pnas.2313332121)",
  "parents": {"B1": {"name": "TPR 5TU (parent)", "chain": "GGAUCUUCUCGAUCUAACAAAAAAGACAAAUCUGCCACAAAGCUUGAGAGCAUCUUCGGAUGCAGAGGCGGCAGCCUUCGGUGGCGCGAUAGCGCCAACGUUCUCAACUAUGACACGCAAAACGCGUGCUCCGUUGAAUGGAGUUUAUCAUG"}},
  "note": "This sample is rich in variants without activity.",
  "data": [
    {"variants_of": "B1", "assay": "polymerase ribozyme fitness, log enrichment relative to wild type (log ratio); higher = more active; in vitro selection for triplet polymerase activity", "procedure,_shortened": "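For each subunit of a heterodimeric triplet polymerase ribozyme, a mutant library was built by PCR and transcribed, then taken through a single in vitro selection round in triplicate. Selection involved annealing to a biotinylated primer, the partner subunit and triplets, incubation frozen at −7 °C, gel excision of extended constructs, capture on streptavidin beads and RT-PCR. Genotypes were retained after Illumina sequencing of inputs and outputs only with ≥10 input reads and ≥1 read in each output. Fitness is defined as the logarithm of a genotype's enrichment relative to wild-type enrichment, using inverse-variance-weighted averages across replicates, with the logarithm taken to base 2.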", "values": [
      {"variant": "U61A G74U U139A", "polymerase ribozyme fitness (log ratio)": "≤ -4.2"},
      {"variant": "U61A A91U", "polymerase ribozyme fitness (log ratio)": "≤ -4.2"},
      {"variant": "G59U C75U C87U C93U U127G U148A", "polymerase ribozyme fitness (log ratio)": "≤ -4.2"},
      {"variant": "G58C C72U C93U A97G A120G U134A A137G", "polymerase ribozyme fitness (log ratio)": "≤ -4.2"},
      {"variant": "G62A C85A A121U U134C A137G", "polymerase ribozyme fitness (log ratio)": -3.02},
      {"variant": "G59A A97U A122G G128A", "polymerase ribozyme fitness (log ratio)": "≤ -4.2"},
      {"variant": "G59C G100A A115C U144C", "polymerase ribozyme fitness (log ratio)": "≤ -4.2"},
      {"variant": "U61A G62A U90G C95G C105A C114G U144C G152C", "polymerase ribozyme fitness (log ratio)": "≤ -4.2"},
      {"variant": "G58C U61G U146G", "polymerase ribozyme fitness (log ratio)": -3.76},
      {"variant": "A64C G70A C75G C131U", "polymerase ribozyme fitness (log ratio)": "≤ -4.2"},
      {"variant": "G59C A66U C85U", "polymerase ribozyme fitness (log ratio)": "≤ -4.2"},
      {"variant": "G59U G124C U134G U146A", "polymerase ribozyme fitness (log ratio)": -3.17},
      {"variant": "A60G A150G", "polymerase ribozyme fitness (log ratio)": -0.0266},
      {"variant": "U61C C76A", "polymerase ribozyme fitness (log ratio)": -2.59},
      {"variant": "U61A A89C U102G U104C", "polymerase ribozyme fitness (log ratio)": "≤ -4.2"},
      {"variant": "A64G A91U", "polymerase ribozyme fitness (log ratio)": "≤ -4.2"},
      {"variant": "A64G A91G", "polymerase ribozyme fitness (log ratio)": "≤ -4.2"},
      {"variant": "A64C G81A G84A", "polymerase ribozyme fitness (log ratio)": "≤ -4.2"},
      {"variant": "U61A A89U", "polymerase ribozyme fitness (log ratio)": -0.941},
      {"variant": "G59C A120U A122C A147G", "polymerase ribozyme fitness (log ratio)": -1.22},
      {"variant": "G59A G86U A91C C93U A142U U144G", "polymerase ribozyme fitness (log ratio)": "≤ -4.2"},
      {"variant": "A60U U61A A142C", "polymerase ribozyme fitness (log ratio)": -3.49},
      {"variant": "A60C C76U A91U C93U A106G C125G", "polymerase ribozyme fitness (log ratio)": "≤ -4.2"},
      {"variant": "G59A A60U C87A G128A", "polymerase ribozyme fitness (log ratio)": "≤ -4.2"},
      {"variant": "C63A C75U C85G U101G G140U U146C", "polymerase ribozyme fitness (log ratio)": "≤ -4.2"},
      {"variant": "A60C A89C C105G", "polymerase ribozyme fitness (log ratio)": "≤ -4.2"},
      {"variant": "A60C C85G G86A A89U A110G U135G U144G", "polymerase ribozyme fitness (log ratio)": "≤ -4.2"},
      {"variant": "U61A U77G G84U C149A", "polymerase ribozyme fitness (log ratio)": "≤ -4.2"},
      {"variant": "G59C A89U C93G C108U G117U A122U U135G A147C", "polymerase ribozyme fitness (log ratio)": "≤ -4.2"},
      {"variant": "U61C C99A G128A", "polymerase ribozyme fitness (log ratio)": "≤ -4.2"},
      {"variant": "G59C A107U G143U", "polymerase ribozyme fitness (log ratio)": "≤ -4.2"},
      {"variant": "U61A G84A U109G", "polymerase ribozyme fitness (log ratio)": "≤ -4.2"},
      {"variant": "A60G G83A G86A A97C C125G C131G G136A G152U", "polymerase ribozyme fitness (log ratio)": "≤ -4.2"},
      {"variant": "G59C G67C C87U C118A A119U", "polymerase ribozyme fitness (log ratio)": "≤ -4.2"},
      {"variant": "A60U G133C C149G", "polymerase ribozyme fitness (log ratio)": "≤ -4.2"},
      {"variant": "U61A A73U U77G G88C A119U A137G U144A", "polymerase ribozyme fitness (log ratio)": "≤ -4.2"},
      {"variant": "A60C C85A C125G U144G", "polymerase ribozyme fitness (log ratio)": -2.67},
      {"variant": "G59U G92A A98G A113C U151A", "polymerase ribozyme fitness (log ratio)": "≤ -4.2"},
      {"variant": "A64G A137G", "polymerase ribozyme fitness (log ratio)": "≤ -4.2"},
      {"variant": "A60C C93A U102G C108G", "polymerase ribozyme fitness (log ratio)": "≤ -4.2"},
      {"variant": "G58C G70A C93U C95U A142G U144A", "polymerase ribozyme fitness (log ratio)": "≤ -4.2"},
      {"variant": "G58U U61A U90A A142G", "polymerase ribozyme fitness (log ratio)": "≤ -4.2"},
      {"variant": "U61A C79G U82C C132G", "polymerase ribozyme fitness (log ratio)": "≤ -4.2"},
      {"variant": "G59U C96A", "polymerase ribozyme fitness (log ratio)": -0.703},
      {"variant": "A60U U127G", "polymerase ribozyme fitness (log ratio)": -3.08},
      {"variant": "A64G C85U C87G C125A", "polymerase ribozyme fitness (log ratio)": "≤ -4.2"},
      {"variant": "U61A C93G C96U G124U A138C", "polymerase ribozyme fitness (log ratio)": "≤ -4.2"},
      {"variant": "G59C A91U C93A A106C A138G", "polymerase ribozyme fitness (log ratio)": "≤ -4.2"},
      {"variant": "G59C A142C", "polymerase ribozyme fitness (log ratio)": -0.57},
      {"variant": "G58U A64G A91G A113U U135A", "polymerase ribozyme fitness (log ratio)": "≤ -4.2"},
      {"variant": "U61A G94C C99G U102G A115U", "polymerase ribozyme fitness (log ratio)": "≤ -4.2"},
      {"variant": "G62A C69U G92C", "polymerase ribozyme fitness (log ratio)": -3.74},
      {"variant": "G58C G92C C93U C114A", "polymerase ribozyme fitness (log ratio)": "≤ -4.2"},
      {"variant": "G59A U82C U134A", "polymerase ribozyme fitness (log ratio)": -2.59},
      {"variant": "G59U C75A C79U C85A A98G A115G U135G", "polymerase ribozyme fitness (log ratio)": "≤ -4.2"},
      {"variant": "C63A U109C", "polymerase ribozyme fitness (log ratio)": "≤ -4.2"},
      {"variant": "G58C C72U A150U", "polymerase ribozyme fitness (log ratio)": 0.398},
      {"variant": "G62C A113U G117A A137C", "polymerase ribozyme fitness (log ratio)": "≤ -4.2"},
      {"variant": "C63G C87A A107U A142C G143A", "polymerase ribozyme fitness (log ratio)": "≤ -4.2"},
      {"variant": "G59A C76A A113G A121G", "polymerase ribozyme fitness (log ratio)": "≤ -4.2"},
      {"variant": "A60C G71U U77A C105U", "polymerase ribozyme fitness (log ratio)": "≤ -4.2"},
      {"variant": "C63G A66G G71A G74U U135G G143C", "polymerase ribozyme fitness (log ratio)": "≤ -4.2"},
      {"variant": "A60G C99G C105U A107G C129U", "polymerase ribozyme fitness (log ratio)": "≤ -4.2"},
      {"variant": "A60C U82G G84A", "polymerase ribozyme fitness (log ratio)": -1.71},
      {"variant": "U61G G70A C85G C96U", "polymerase ribozyme fitness (log ratio)": "≤ -4.2"},
      {"variant": "A64U C96U C105G A107U C125U G133A G140U G152C", "polymerase ribozyme fitness (log ratio)": "≤ -4.2"},
      {"variant": "A60G C76U G86C A97G C108G", "polymerase ribozyme fitness (log ratio)": "≤ -4.2"},
      {"variant": "G59A A66G G68A A91U C108G G140C", "polymerase ribozyme fitness (log ratio)": "≤ -4.2"},
      {"variant": "G58C G67A", "polymerase ribozyme fitness (log ratio)": "≤ -4.2"},
      {"variant": "A60U C131A", "polymerase ribozyme fitness (log ratio)": -2.81},
      {"variant": "G62A C69U", "polymerase ribozyme fitness (log ratio)": -2.82},
      {"variant": "G58C C87U A115G C116G A121U G136U", "polymerase ribozyme fitness (log ratio)": -4.12},
      {"variant": "U61A G80A G86U G112C G124A A137G", "polymerase ribozyme fitness (log ratio)": "≤ -4.2"},
      {"variant": "G59U C69G G88C C125A", "polymerase ribozyme fitness (log ratio)": "≤ -4.2"},
      {"variant": "U61A C149G", "polymerase ribozyme fitness (log ratio)": "≤ -4.2"},
      {"variant": "G59A G80C G83A C114U C116U", "polymerase ribozyme fitness (log ratio)": "≤ -4.2"},
      {"variant": "G58C G67U C79A C85U U102G", "polymerase ribozyme fitness (log ratio)": "≤ -4.2"},
      {"variant": "G59U A120U A122U", "polymerase ribozyme fitness (log ratio)": -0.451},
      {"variant": "A60U C85A U101A A119G U127C", "polymerase ribozyme fitness (log ratio)": "≤ -4.2"},
      {"variant": "G58U G68A G74A U78A C93A A147C", "polymerase ribozyme fitness (log ratio)": "≤ -4.2"},
      {"variant": "G59A C85U", "polymerase ribozyme fitness (log ratio)": -1.79},
      {"variant": "A60G U77G C87U C132G", "polymerase ribozyme fitness (log ratio)": "≤ -4.2"},
      {"variant": "G59A", "polymerase ribozyme fitness (log ratio)": -0.0739}
    ]}
  ]
}
